Measured values from the supplement of paper PMC8728848.
Some of the results follow.

What was measured:
Test in all cases: glycan array binding signal (z-score within array); higher = stronger binding
Conditions in all cases: glycan notation: IUPAC condensed, linker removed
[1] = molecular target: Gal(b1-4)GalNAc(b1-3)[Fuc(a1-2)]Gal(b1-4)GlcNAc
Outline: (§1)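 Glycan array data were curated from 3228 arrays in the Consortium for Functional Glycomics database and kept only where the protein sequence was available. Glycan names were converted to IUPAC-condensed notation, and columns mapping to the same glycan were averaged. The binding signal is a within-array Z-score, averaged across arrays of the same protein sequence at different concentrations or buffers and across linkers. Negative Z-scores can be read as non-binding.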

Gal(b1-4)Glc = molecular target: Gal(b1-4)Glc
Outline: as §1

Gal(b1-4)Glc6S = molecular target: Gal(b1-4)Glc6S
Outline: as §1

Gal(b1-4)GlcNAc = molecular target: Gal(b1-4)GlcNAc
Outline: as §1

[2] = molecular target: Gal(b1-4)GlcNAc(a1-6)Gal(b1-4)GlcNAc
Outline: as §1

Gal(b1-4)GlcNAc(b1-2)Man = molecular target: Gal(b1-4)GlcNAc(b1-2)Man
Outline: as §1

[3] = molecular target: Gal(b1-4)GlcNAc(b1-2)Man(a1-3)Man(b1-4)GlcNAc(b1-4)GlcNAc
Outline: as §1

[4] = molecular target: Gal(b1-4)GlcNAc(b1-2)Man(a1-3)[Gal(b1-4)GlcNAc(b1-2)Man(a1-6)]Man(b1-4)GlcNAc(b1-4)GlcNAc
Outline: as §1

[5] = molecular target: Gal(b1-4)GlcNAc(b1-2)Man(a1-3)[Gal(b1-4)GlcNAc(b1-2)Man(a1-6)]Man(b1-4)GlcNAc(b1-4)[Fuc(a1-6)]GlcNAc
Outline: as §1

[6] = molecular target: Gal(b1-4)GlcNAc(b1-2)Man(a1-3)[Gal(b1-4)GlcNAc(b1-2)Man(a1-6)][Gal(b1-4)GlcNAc(b1-4)]Man(b1-4)GlcNAc(b1-4)[Fuc(a1-6)]GlcNAc
Outline: as §1

[7] = molecular target: Gal(b1-4)GlcNAc(b1-2)Man(a1-3)[Gal(b1-4)GlcNAc(b1-2)Man(a1-6)][GlcNAc(b1-4)]Man(b1-4)GlcNAc(b1-4)[Fuc(a1-6)]GlcNAc
Outline: as §1

[8] = molecular target: Gal(b1-4)GlcNAc(b1-2)Man(a1-3)[GlcNAc(b1-2)Man(a1-6)]Man(b1-4)GlcNAc(b1-4)GlcNAc
Outline: as §1

[9] = molecular target: Gal(b1-4)GlcNAc(b1-2)Man(a1-3)[GlcNAc(b1-4)][Gal(b1-4)GlcNAc(b1-2)Man(a1-6)]Man(b1-4)GlcNAc(b1-4)GlcNAc
Outline: as §1

[10] = molecular target: Gal(b1-4)GlcNAc(b1-2)Man(a1-3)[Man(a1-6)]Man(b1-4)GlcNAc(b1-4)GlcNAc
Outline: as §1

[11] = molecular target: Gal(b1-4)GlcNAc(b1-2)Man(a1-6)Man(b1-4)GlcNAc(b1-4)GlcNAc
Outline: as §1

[12] = molecular target: Gal(b1-4)GlcNAc(b1-2)Man(a1-6)[GlcNAc(b1-2)Man(a1-3)]Man(b1-4)GlcNAc(b1-4)GlcNAc
Outline: as §1

[13] = molecular target: Gal(b1-4)GlcNAc(b1-2)Man(a1-6)[Man(a1-3)]Man(b1-4)GlcNAc(b1-4)GlcNAc
Outline: as §1

[14] = molecular target: Gal(b1-4)GlcNAc(b1-2)[Gal(b1-4)GlcNAc(b1-4)]Man(a1-3)[Gal(b1-4)GlcNAc(b1-2)Man(a1-6)]Man(b1-4)GlcNAc(b1-4)GlcNAc
Outline: as §1

[15] = molecular target: Gal(b1-4)GlcNAc(b1-2)[Gal(b1-4)GlcNAc(b1-4)]Man(a1-3)[Gal(b1-4)GlcNAc(b1-2)[Gal(b1-4)GlcNAc(b1-6)]Man(a1-6)]Man(b1-4)GlcNAc(b1-4)GlcNAc
Outline: as §1

[16] = molecular target: Gal(b1-4)GlcNAc(b1-2)[Gal(b1-4)GlcNAc(b1-4)]Man(a1-3)[GlcNAc(b1-4)][Gal(b1-4)GlcNAc(b1-2)Man(a1-6)]Man(b1-4)GlcNAc(b1-4)GlcNAc
Outline: as §1

[17] = molecular target: Gal(b1-4)GlcNAc(b1-2)[Gal(b1-4)GlcNAc(b1-4)]Man(a1-3)[GlcNAc(b1-4)][Gal(b1-4)GlcNAc(b1-2)[Gal(b1-4)GlcNAc(b1-6)]Man(a1-6)]Man(b1-4)GlcNAc(b1-4)GlcNAc
Outline: as §1

[18] = molecular target: Gal(b1-4)GlcNAc(b1-2)[Gal(b1-4)GlcNAc(b1-6)]Man(a1-6)[Gal(b1-4)GlcNAc(b1-2)Man(a1-3)]Man(b1-4)GlcNAc(b1-4)GlcNAc
Outline: as §1

[19] = molecular target: Gal(b1-4)GlcNAc(b1-2)[Gal(b1-4)GlcNAc(b1-6)]Man(a1-6)[Gal(b1-4)GlcNAc(b1-2)Man(a1-3)]Man(b1-4)GlcNAc(b1-4)[Fuc(a1-6)]GlcNAc
Outline: as §1

[20] = molecular target: Gal(b1-4)GlcNAc(b1-2)[Gal(b1-4)GlcNAc(b1-6)]Man(a1-6)[GlcNAc(b1-4)][Gal(b1-4)GlcNAc(b1-2)Man(a1-3)]Man(b1-4)GlcNAc(b1-4)GlcNAc
Outline: as §1

[21] = molecular target: Gal(b1-4)GlcNAc(b1-2)[Gal(b1-4)GlcNAc(b1-6)]Man(a1-6)[GlcNAc(b1-4)][Gal(b1-4)GlcNAc(b1-2)[Gal(b1-4)GlcNAc(b1-4)]Man(a1-3)]Man(b1-4)GlcNAc(b1-4)[Fuc(a1-6)]GlcNAc
Outline: as §1

[22] = molecular target: Gal(b1-4)GlcNAc(b1-3)Gal(b1-3)GalNAc
Outline: as §1

[23] = molecular target: Gal(b1-4)GlcNAc(b1-3)Gal(b1-3)GlcNAc
Outline: as §1

[24] = molecular target: Gal(b1-4)GlcNAc(b1-3)Gal(b1-4)Glc
Outline: as §1

[25] = molecular target: Gal(b1-4)GlcNAc(b1-3)Gal(b1-4)GlcNAc
Outline: as §1

[26] = molecular target: Gal(b1-4)GlcNAc(b1-3)Gal(b1-4)GlcNAc(b1-2)Man(a1-3)[Gal(b1-4)GlcNAc(b1-3)Gal(b1-4)GlcNAc(b1-2)Man(a1-6)]Man(b1-4)GlcNAc(b1-4)GlcNAc
Outline: as §1

[27] = molecular target: Gal(b1-4)GlcNAc(b1-3)Gal(b1-4)GlcNAc(b1-2)Man(a1-3)[Gal(b1-4)GlcNAc(b1-3)Gal(b1-4)GlcNAc(b1-2)Man(a1-6)]Man(b1-4)GlcNAc(b1-4)[Fuc(a1-6)]GlcNAc
Outline: as §1

[28] = molecular target: Gal(b1-4)GlcNAc(b1-3)Gal(b1-4)GlcNAc(b1-2)[Gal(b1-4)GlcNAc(b1-3)Gal(b1-4)GlcNAc(b1-6)]Man(a1-6)[Gal(b1-4)GlcNAc(b1-3)Gal(b1-4)GlcNAc(b1-2)Man(a1-3)]Man(b1-4)GlcNAc(b1-4)GlcNAc
Outline: as §1

[29] = molecular target: Gal(b1-4)GlcNAc(b1-3)Gal(b1-4)GlcNAc(b1-2)[Gal(b1-4)GlcNAc(b1-3)Gal(b1-4)GlcNAc(b1-6)]Man(a1-6)[Gal(b1-4)GlcNAc(b1-3)Gal(b1-4)GlcNAc(b1-2)Man(a1-3)]Man(b1-4)GlcNAc(b1-4)[Fuc(a1-6)]GlcNAc
Outline: as §1

[30] = molecular target: Gal(b1-4)GlcNAc(b1-3)Gal(b1-4)GlcNAc(b1-3)Gal(b1-4)GlcNAc
Outline: as §1

[31] = molecular target: Gal(b1-4)GlcNAc(b1-3)Gal(b1-4)GlcNAc(b1-3)Gal(b1-4)GlcNAc(b1-2)Man(a1-3)[Gal(b1-4)GlcNAc(b1-3)Gal(b1-4)GlcNAc(b1-3)Gal(b1-4)GlcNAc(b1-2)Man(a1-6)]Man(b1-4)GlcNAc(b1-4)GlcNAc
Outline: as §1

[32] = molecular target: Gal(b1-4)GlcNAc(b1-3)Gal(b1-4)GlcNAc(b1-3)Gal(b1-4)GlcNAc(b1-2)Man(a1-3)[Gal(b1-4)GlcNAc(b1-3)Gal(b1-4)GlcNAc(b1-3)Gal(b1-4)GlcNAc(b1-2)Man(a1-6)]Man(b1-4)GlcNAc(b1-4)[Fuc(a1-6)]GlcNAc
Outline: as §1

[33] = molecular target: Gal(b1-4)GlcNAc(b1-3)Gal(b1-4)GlcNAc(b1-3)Gal(b1-4)GlcNAc(b1-2)[Gal(b1-4)GlcNAc(b1-3)Gal(b1-4)GlcNAc(b1-3)Gal(b1-4)GlcNAc(b1-6)]Man(a1-6)[Gal(b1-4)GlcNAc(b1-3)Gal(b1-4)GlcNAc(b1-3)Gal(b1-4)GlcNAc(b1-2)Man(a1-3)]Man(b1-4)GlcNAc(b1-4)[Fuc(a1-6)]GlcNAc
Outline: as §1

B1: Siglec-E (Mus musculus), Q91Y57 (protein)
chain: MLLLLLLLLLWGIKGVEGQNPQEVFTLNVERKVVVQEGLCVLVPCNFSYLKKRLTDWTDSDPVHGFWYREGTDRRKDSIVATNNPIRKAVKETRNRFFLLGDPWRNDCSLNIREIRKKDAGLYFFRLERGKTKYNYMWDKMTLVVTALTNTPQILLPETLEAGHPSNLTCSVPWDCGWTAPPIFSWTGTSVSFLSTNTTGSSVLTITPQPQDHGTNLTCQVTLPGTNVSTRMTTRLNVSYAPKNLTVTIYQGADSVSTILKNGSSLPISEGQSLRLICSTDSYPPANLSWSWDNLTLCPSKLSKPGLLELFPVHLKHGGVYTCQAQHALGSQHISLSLSPQSSATLSEMMMGTFVGSGVTALLFLSVCILLLAVRSYRRKPARPAVVAPHPDALKVSVSQNPLVESQADDSSEPLPSILEAAPSSTEEEIHYATLSFHEMKPMNLWGQQDTTTEYSEIKFPQRTAWP
glycan array binding signal (z-score) [1]: -0.625 | glycan array binding signal (z-score) (Gal(b1-4)Glc): -0.324 | glycan array binding signal (z-score) (Gal(b1-4)Glc6S): -0.266 | glycan array binding signal (z-score) (Gal(b1-4)GlcNAc): -0.433 | glycan array binding signal (z-score) [2]: -0.108 | glycan array binding signal (z-score) (Gal(b1-4)GlcNAc(b1-2)Man): 2.29 | glycan array binding signal (z-score) [3]: -0.39 | glycan array binding signal (z-score) [4]: -0.384 | glycan array binding signal (z-score) [5]: 1.18 | glycan array binding signal (z-score) [6]: -0.429 | glycan array binding signal (z-score) [7]: -0.6 | glycan array binding signal (z-score) [8]: -0.379 | glycan array binding signal (z-score) [9]: -0.388 | glycan array binding signal (z-score) [10]: 0.024 | glycan array binding signal (z-score) [11]: -0.638 | glycan array binding signal (z-score) [12]: -0.414 | glycan array binding signal (z-score) [13]: -0.439 | glycan array binding signal (z-score) [14]: -0.496 | glycan array binding signal (z-score) [15]: -0.667 | glycan array binding signal (z-score) [16]: 0.685 | glycan array binding signal (z-score) [17]: -0.189 | glycan array binding signal (z-score) [18]: 0.105 | glycan array binding signal (z-score) [19]: 0.444 | glycan array binding signal (z-score) [20]: -0.367 | glycan array binding signal (z-score) [21]: -0.331 | glycan array binding signal (z-score) [22]: -0.224 | glycan array binding signal (z-score) [23]: -0.527 | glycan array binding signal (z-score) [24]: -0.128 | glycan array binding signal (z-score) [25]: -0.523 | glycan array binding signal (z-score) [26]: 0.558 | glycan array binding signal (z-score) [27]: -0.314 | glycan array binding signal (z-score) [28]: 0.554 | glycan array binding signal (z-score) [29]: -0.445 | glycan array binding signal (z-score) [30]: -0.413 | glycan array binding signal (z-score) [31]: -0.064 | glycan array binding signal (z-score) [32]: -0.527 | glycan array binding signal (z-score) [33]: -0.364
